Source: publication PMC12040169 (PLOS Biology, 2025)
Some of the results follow.

System: T1, C. trachomatis L2/434/Bu expressing GFP (CTL2-GFP)
T1 construct: L2/434/Bu GFP intracellular growth in HeLa cells
Design: species or system HeLa; C. trachomatis total inclusion area by high-content imaging, normalised to DMSO
Settings: total inclusion area; 28.5 h, 10 µM; inhibitor
Method in brief: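 High-content images of fixed, Hoechst-stained infected cultures supply inclusion area and count (growth) plus nuclei number (viability), complementing bulk GFP/resorufin fluorescence. MIC determination is unchanged from the primary assay.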

SMILES | % of control remaining
CS(=O)(=O)c1ccc2ncnc(NCC(CO)Cc3ccccn3)c2c1 (stereo not shown) [CBK306493] | 57.8461
C=CCN(CC=C)Cc1c(C)nc2ccc(CC)cc2c1O [CBK264998] | 111.307
O=C(Nc1ccc(S(=O)(=O)Nc2ncccn2)cc1)c1ccc2c(c1)OCCO2 [CBK268132] | 39.6017
Clc1ccc(OCc2ccccc2)c(CNCc2ccccn2)c1 [CBK269850C] | 49.9177
CSc1cc(CC(C)(C)C)c2cccc(F)c2n1 [CBK018791] | 9.069
O=C(Nc1cnccn1)c1ccc(Cl)cc1Cl [CBK056922] | 20.8537
O=C1N=C(NC2CCCCCC2)SC1CCNC(=O)N1CCOCC1 (stereo not shown) [CBK067687] | 66.6151
Cc1noc(C)c1CC(=O)NC(C)c1cc2cc(Cl)ccc2o1 (stereo not shown) [CBK281445] | 105.144
COc1cc(Nc2nc(-c3cccc(C(=O)NCCN(C)C)c3)cn3ccnc23)cc(OC)c1OC [CBK066250] | 108.797
COCCn1c(Cc2ccccc2)nnc1SCc1ccc2ccccc2c1 [CBK265985] | 136.787
Cc1cc2ncc3c(n2n1)CC1CCC3N1C(=O)CCc1ccco1 (stereo not shown) [CBK284380] | 89.219
NC(=O)c1cccc(CNC2CCCN(c3cccnn3)C2)c1 (stereo not shown) [CBK305115] | 56.022
COc1ccc(-n2nc([N+](=O)[O-])c(NCc3ccccn3)[n+]2[O-])cc1 [CBK268430] | 90.5868
COc1ccnc(N2CCN(C(=O)c3c4c(nn3C)CCCC4)CC2)n1 [CBK304609] | 67.7575
CCC(C)c1csc(C2CN3CCCC3CO2)n1 (stereo not shown) [CBK304805] | 81.6471
CS(=O)(=O)Nc1ccccc1C(=O)NCCCN1CCOCC1 [CBK269745] | 113.699
O=c1c(Cc2ccccc2)c(O)c2ccccc2n1Cc1ccccc1 [CBK219368] | 105.309
Cc1cc(C)n2nc(C(=O)N3CCC(C)CC3c3ccco3)nc2n1 (stereo not shown) [CBK305196] | 27.8149
Cc1nn(C)c(C)c1CNC(=O)N1CCN(CC(F)F)CC1 [CBK304249] | 44.7154
O=C(O)CSc1nc2ccc([N+](=O)[O-])cc2[nH]1 [CBK265192] | 98.5818
NC(=O)CN1CCC(Oc2cncc(OCc3cccnc3)n2)C1 (stereo not shown) [CBK084459] | 94.2618
CC1CCN(CC(C)(C)n2cncc2-c2cnn(C)c2)CC1 [CBK281738] | 77.5304
CC(=O)N1CCN(C(C(=O)O)c2cn(Cc3ccccc3)c3ccc(C(=O)O)cc23)CC1 (stereo not shown) [CBK286648] | 102.336
COc1ccc(C(=O)N2C[C@@H](C)O[C@@H](C)C2)c(OC)n1 [CBK200231] | 119.157
COc1ccc(CCC(=O)N2CCC(N(C)Cc3ccc(-c4ccc(S(C)(=O)=O)cc4)nc3)CC2)cc1Cl [CBK164102T] | 48.27
COc1ccc(-c2ccc3ccc(NC(=O)C(C)C)nc3n2)cc1C [CBK073665] | 83.5817

SMILES | % of control remaining
CC(C)[C@H](CO)n1c(=O)[nH]c2ncc(-c3cccc(CO)c3)nc21 [CBK065001] | 111.398
Brc1cncc2c1ccn2CCN1CCOCC1 [CBK083479] | 50.8026
COCCN1CC(CNC(=O)c2ccc(N3CCCC3)c(Cl)c2)CC1=O (stereo not shown) [CBK307680] | 65.2275
CCCCC(=O)NC(c1ccccc1OC)c1cc(Cl)c2cccnc2c1O (stereo not shown) [CBK110947] | 72.7579
COc1ccc(-c2cnc3[nH]c(=O)n(C4CC4)c3n2)cc1 [CBK064907] | 106.548
Cc1n[nH]c(C)c1CNC(=O)c1cccc2c(C)c(C)[nH]c12 [CBK283068] | 110.72
O=C(O)CCSc1nc2ccccc2n1-c1ccccc1 [CBK264215] | 110.065
Cc1nc(N2CCOCC2)[nH]c(=O)c1CCC(=O)Nc1ccc(F)cc1 [CBK304990] | 64.9654
Cc1cccc([C@H]2CN(C(=O)C3CCCC3)[C@@H]3CCN(C4CCCC4)C[C@H]23)c1 [CBK285529] | 80.1768
COc1ccc(C(C)NC(=O)C2CCCCC2C(=O)O)cc1OC (stereo not shown) [CBK270309] | 81.449
Cn1ccnc1[S+]([O-])Cc1nc2ccccc2s1 (stereo not shown) [CBK005549] | 86.1523
[O-][n+]1c2c([n+]([O-])c3c1CCCC3)CCCC2 [CBK261714] | 107.093
CC(=O)Nc1nc(-c2ccc(Cl)s2)cs1 [CBK287317] | 111.967
c1cc(-c2nccnc2NCC2CCCCC2)ccn1 [CBK037627] | 111.73
NCC1CCN(c2nc(-c3cc(C(F)(F)F)cc(C(F)(F)F)c3)cnc2N)CC1 [CBK063960] | 117.168
Cc1ccc(NC(=O)c2c[nH]c(=O)[nH]c2=O)cc1 [CBK113246] | 103.225
NCCNc1ccc([N+](=O)[O-])c(NCc2ccccc2)c1 [CBK262757C] | 69.143
NC(=O)c1ccc(NC(=O)COc2ccc3ccccc3c2)cc1 [CBK263738] | 96.726
CCn1cc(CN2C3CCC2CC(O)(c2ccc(F)cc2)C3)cn1 (stereo not shown) [CBK282741] | 98.4323
O=C(NCc1cccc2ccccc12)N1CCN(Cc2ccccc2)CC1 [CBK155628] | 90.0701
O=C(NC(C(=O)N/N=C/c1ccc(O)cc1)c1n[nH]c(=O)c2ccccc12)c1ccccc1 (stereo not shown) [CBK262839] | 58.1513
CC(C)Cn1c(=O)[nH]c2ncc(-c3ccc(C(=O)NC4CCCC4)cc3)nc21 [CBK064551] | 122.197
CCCSc1cc(=O)oc2ccccc12 [CBK017493] | 36.2716
COc1cccc(C(=O)N2CC=C[C@H]2C(=O)NC2CC2)c1 [CBK284278] | 42.0043
O=S(=O)(c1ccc(-c2ccc(S(=O)(=O)N3CCCCC3)cc2)cc1)N1CCCCC1 [CBK261257] | 92.1789
COc1cccc(CC(=O)N2CCCC(c3cc4ncccc4[nH]3)C2)c1 (stereo not shown) [CBK283426] | 94.1275
